Results as given in PubChem BioAssay AID485297 (National Center for Advancing Translational Sciences (NCATS), 2010).
About 9,100 (2.8%) of roughly 320,000 compounds were called active. The inconclusive results got no clear call from the source; some entries with a clear call stand among them for comparison. Calls follow the shape of the dose curve; as a rule, active = well fitted activation curve with a large enough effect; inconclusive = small, poorly fitted or top-dose-only effect; inactive = no such curve, though single readings can be large or run the other way. No potency is given beside an inconclusive call; the fits are too rough.

Test: qHTS Assay for Rab9 Promoter Activators; also: nearly all actives have a fitted effect of over 60% in size; as to activation, negative = inhibition: % of control where 0% means no effect
Conditions: Huh7 Rab9 promoter-luciferase reporter, luminescence, 24 h; series mostly up to 9.22 µM; activation, negative = inhibition: at the top concentration
How it was run: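 Promoter activation is measured as luciferase luminescence in Huh7 cells stably transfected with a Rab9 promoter–luciferase construct, following 24 h compound exposure at 37 °C and 10 min reagent incubation at ambient temperature.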
Potency is read from the fitted curve at half-maximal effect; tags tell the direction and shape of the fitted curve.

Row | SMILES | Potency | activation, negative = inhibition
1 | CC(NC(=O)NC(=O)c1ccc(Cl)cc1Cl)C1CC1 (centres undefined) | inconclusive [activator, partial curve] | –
2 | Cc1ccc(NC(=O)c2onc(C)c2Cl)cc1 | inconclusive [activator, single point] | –
3 | CC1CCc2c(sc(NC(=O)c3ccc(-c4ccccc4[N+](=O)[O-])o3)c2C#N)C1 (centres undefined) | – | inactive: 14.2%
4 | Cc1ccc(-c2cc(C(=O)NCc3cccs3)no2)cc1 | active: 2 µM | –
5 | Cc1cccc(-n2ncc3c(NCc4cccs4)ncnc32)c1 | inconclusive [activator, single point] | –
6 | O=C(Cc1ccccc1)Nc1ccc2oc(-c3ccncc3)nc2c1 | – | inactive: 18.1%
7 | O=C(N=Nc1c(O)n(Cc2ccccc2)c2ccccc12)c1ccc(O)cc1 | inconclusive [activator, single point] | –
8 | Cc1ccc(C)c(NC(=O)c2cc3ccccn3n2)c1 | active: 2.24 µM | –
9 | Cc1ccc(-c2cc(=O)c3cc(C)ccc3[nH]2)cc1 | inconclusive [activator, full curve] | –
10 | CC/C(=N\NC(=O)c1c[nH]c2ccccc12)c1cccs1 | active: 2.82 µM | –
11 | O=C(COc1cccc(Cl)c1)Nc1nc(-c2ccc(S(=O)(=O)N3CCOCC3)cc2)cs1 | – | inactive: -3.96%
12 | CC1CCN(C(=O)c2cc(-c3ccc4c(c3)OCO4)on2)CC1 | active: 1.12 µM | –
13 | COc1cccc(Nc2ncnc3nc[nH]c23)c1 | inconclusive [activator, single point] | –
14 | Cc1c(C(=O)Nc2ccccn2)oc2ccccc12 | inconclusive [activator, single point] | –
15 | CCC(C)(C)C1CCC2(CC1)NC(=O)N(CC(=O)N(C)CC(=O)Nc1ccccc1C(F)(F)F)C2=O (centres undefined) | inconclusive [activator, single point] | –
16 | CCC(=O)Nc1ccc(-c2csc(C)n2)cc1 | inconclusive [activator, single point] | –
17 | CCCCS(=N)(=O)CC[C@H](N)C(=O)O (some centres undefined) | – | inactive: 4.28% [at 46.1 µM]
18 | O=C(NCCc1cccc(Cl)c1)c1ccc2c(c1)OCO2 | active: 0.447 µM | –
19 | N#CCc1nc(CSc2nc3ccccc3s2)cs1 | inconclusive [activator, partial curve] | –
20 | O=C(CN1C(=O)C(=O)N(Cc2ccccc2)C1=O)c1ccc[nH]1 | inconclusive [activator, single point] | –
21 | O=C(NC1CCCCC1)Oc1ccccc1 | inconclusive [activator, single point] | –
22 | CCOc1cccc(C(=O)NC(=S)Nc2ccc3c(c2)OCCO3)c1 | inconclusive [activator, single point] | –
23 | O=C(c1ccccc1)c1ccc2nc[nH]c2c1 | inconclusive [activator, single point] | –
24 | COc1ccc2[nH]c3c(N4CC(C)OC(C)C4)ncnc3c2c1 (centres undefined) | – | inactive: -7.45%
25 | NC(=O)CNc1ncc(C(F)(F)F)cc1Cl | – | inactive: -3.69%
26 | COc1ccc(C(=O)Nc2ccccc2)cc1NC(=O)c1cccs1 | – | inactive: -2.51%
27 | COc1ccccc1-c1nc(-c2ccc(C)nc2OC)no1 | active: 2 µM | –

Row | SMILES | Potency | activation, negative = inhibition
28 | CC(C)C1N=C(c2ccc3c(c2)OCO3)CC(c2ccccc2O)N1 (centres undefined) | inconclusive [activator, single point] | –
29 | Cc1sc(-c2ccccn2)nc1OC(=O)c1ccc(F)cc1F | inconclusive [activator, single point] | –
30 | O=C1CCN(C(=O)/C=C/c2ccccc2)c2ccccc21 | inconclusive [activator, single point] | –
31 | CCOC(=O)c1oc2cccc(O)c2c1C | inconclusive [activator, single point] | –
32 | COc1ccc(-c2cc(=O)c3cc(O)ccc3o2)cc1 | active: 1.58 µM | –
33 | Cc1ccc(C(=O)NCC(=O)N2CCCCCC2)cc1 | inconclusive [activator, partial curve] | –
34 | O=C(Cn1nc(-c2ccccc2)nc1-c1ccccc1)OC1CCCCC1 | inconclusive [activator, single point] | –
35 | O=C(NCCc1ccccc1)c1ccc(NCC2CCCO2)c([N+](=O)[O-])c1 (centres undefined) | inconclusive [activator, single point] | –
36 | COc1ccc(CC(=O)NNC(=O)c2c(-c3ccccc3Cl)noc2C)cc1OC | – | inactive: -2.65%
37 | COc1ccccc1CNC(=O)c1oc2ccc(S(=O)(=O)N3CCCC3)cc2c1C | – | inactive: 2.67%
38 | CCC(C(=O)NC(CC(=O)O)c1ccc(Cl)cc1)c1ccccc1 (centres undefined) | – | inactive: -2.17%
39 | O=C(NCC(=O)N1CCc2ccccc2C1)c1ccccc1Cl | inconclusive [activator, single point] | –
40 | CN(C)/C=C(\C#N)C(=O)Nc1ccc(F)cc1 | inconclusive [activator, partial curve] | –
41 | O=C(OCC(=O)N1CCOCC1)c1ccc2ccccc2c1O | active: 3.98 µM | –
42 | Cc1ccc(Nc2nc(C3CC3)cs2)cc1 | active: 3.55 µM | –
43 | Cc1cccc(/C=C2\CCC(=C3SCCCS3)C2=O)c1 | active: 0.0891 µM | –
44 | Cc1cc(/C=C2\SC(=O)N(CC(=O)Nc3ccccc3F)C2=O)c(C)n1C | – | inactive: -12.8%
45 | COc1ccc(OC)c(/C=C/C(=O)N(C)CC(=O)Nc2ccc(N3CCOCC3)cc2)c1 | – | inactive: -1.94%
46 | CCOC(=O)CCc1c(C)c(C#N)c2nc3ccccc3n2c1-n1ccnc1C | inconclusive [activator, single point] | –
47 | COc1ccc(-c2cc3nnc(-c4ccccc4)nc3s2)cc1 | inconclusive [activator, full curve] | –
48 | CCn1c(C)cc(C=C2C(=O)c3ccccc3C2=O)c1C | inconclusive [activator, single point] | –
49 | N#Cc1cc2cc3c(cc2nc1SCC(=O)N1CCOCC1)OCCO3 | inconclusive [activator, partial curve] | –
50 | CCC(C)(CC(=O)O)CC(=O)Nc1cc(C(F)(F)F)cc(C(F)(F)F)c1 (centres undefined) | – | inactive: 1.19%
51 | Fc1ccc(CSc2nnc3ccccn23)c(Cl)c1 | inconclusive [activator, partial curve] | –
52 | COc1ccc(-c2nnc(SCC(=O)Nc3cccc(Cl)c3)o2)cc1 | active: 2 µM | –
53 | COc1ccc(Nc2ncnc3sccc23)cc1 | inconclusive [activator, partial curve] | –
54 | CCCCOc1ccc(-c2nnn(CC(=O)NCc3ccco3)n2)cc1 | inconclusive [activator, partial curve] | –

Row | SMILES | Potency | activation, negative = inhibition
55 | CC1(C)CNC(=O)c2sc(NC(=O)c3ccccc3)nc2C1 | inconclusive [activator, single point] | –
56 | CCOC(=O)c1ccccc1NC(=O)COC(=O)CCC1CCCC1 | – | inactive: 0.219%
57 | O=C(Cc1c(O)c2ccccc2[nH]c1=O)NCc1ccccc1F | inconclusive [activator, single point] | –
58 | O=C(OCC(=O)N1CCCC1)c1cccs1 | inconclusive [activator, partial curve] | –
59 | Cc1nc2c(sc3nc4c(cc32)COC(C)(C)C4)c(=O)n1CC(=O)NCc1ccco1 | inconclusive [activator, partial curve] | –
60 | Cc1[nH]n(-c2cccc(Cl)c2)c(=O)c1C=NCc1ccco1 | active: 1.12 µM | –
61 | O=C1NCC(NC(=O)C(F)(F)F)c2cc3c(cc21)OCO3 (centres undefined) | inconclusive [activator, single point] | –
62 | CCn1nc(C)c(/C=N/NC(=O)c2ccoc2C)c1C | inconclusive [activator, partial curve] | –
63 | CCCCC(=O)Nc1cc([N+](=O)[O-])ccc1Cl | – | inactive: -3.98%
64 | CCOC(=O)C/C(=N\Nc1ncnc2ccccc12)c1ccccc1 | inconclusive [activator, single point] | –
65 | O=C(Cn1c(=S)nc2ccccn21)N1CCc2ccccc2C1 | inconclusive [activator, single point] | –
66 | Cc1nc2c3cnn(-c4ccc(C)c(C)c4)c3ncn2n1 | active: 2 µM | –
67 | CCOC(=O)c1ccc2c(c1)nc(-c1ccc(F)cc1)c1nccn12 | – | inactive: -0.768%
68 | Cc1cc(NC(=O)c2ccccc2C)n(-c2cccc(F)c2)n1 | – | inactive: 2.7%
69 | Clc1ccccc1CSc1nnc(-c2ccncc2)o1 | inconclusive [activator, partial curve] | –
70 | CCOc1ccc2nc(N3CCCC(C(=O)NCCCN4C(C)CCCC4C)C3)sc2c1 (centres undefined) | inconclusive [activator, single point] | –
71 | CC(NC(=O)Cn1ncc(Cl)c(Cl)c1=O)C12CC3CC(CC(C3)C1)C2 (centres undefined) | – | inactive: -29.2%
72 | O=C(NC(=S)Nc1cc([N+](=O)[O-])ccc1O)c1cccnc1 | inconclusive [activator, full curve, poor fit] | –
73 | CC(C)SCCCCOc1ccc2ccccc2c1 | inconclusive [activator, partial curve] | –
74 | O=C(COC(=O)c1ccc(-c2nnc(-c3ccccc3)o2)cc1)c1ccccc1 | active: 0.562 µM | –
75 | CC1(C)C=Cc2c(ccc3c2OC[C@H](c2ccc(O)cc2O)C3)O1 | inconclusive [activator, partial curve] | –
76 | Fc1ccc(-n2nnc(-c3nccs3)n2)cc1 | active: 0.501 µM | –
77 | COc1cc(SC)ccc1C(=O)NCCOc1ccccc1Cl | active: 3.98 µM | –
78 | O=C(c1ccccc1)n1ccc2ccccc21 | inconclusive [activator, single point] | –
79 | O=C(Cc1ccccc1[N+](=O)[O-])OCC(=O)c1c[nH]c2ccccc12 | inconclusive [activator, partial curve] | –
